The text below walks through data of PMC4336329 (PLoS ONE, 2015).

About 14,000 (4.5%) of roughly 310,000 compounds showed an effect of 50% or more. The effect is printed as a negative number. This is one part of the list.
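Note: peak tail current of the secondary pulse compared with the same well before compound.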

Sequence of human ether-à-go-go-related gene (hERG) potassium channel (Q12809 whole entry, looked up): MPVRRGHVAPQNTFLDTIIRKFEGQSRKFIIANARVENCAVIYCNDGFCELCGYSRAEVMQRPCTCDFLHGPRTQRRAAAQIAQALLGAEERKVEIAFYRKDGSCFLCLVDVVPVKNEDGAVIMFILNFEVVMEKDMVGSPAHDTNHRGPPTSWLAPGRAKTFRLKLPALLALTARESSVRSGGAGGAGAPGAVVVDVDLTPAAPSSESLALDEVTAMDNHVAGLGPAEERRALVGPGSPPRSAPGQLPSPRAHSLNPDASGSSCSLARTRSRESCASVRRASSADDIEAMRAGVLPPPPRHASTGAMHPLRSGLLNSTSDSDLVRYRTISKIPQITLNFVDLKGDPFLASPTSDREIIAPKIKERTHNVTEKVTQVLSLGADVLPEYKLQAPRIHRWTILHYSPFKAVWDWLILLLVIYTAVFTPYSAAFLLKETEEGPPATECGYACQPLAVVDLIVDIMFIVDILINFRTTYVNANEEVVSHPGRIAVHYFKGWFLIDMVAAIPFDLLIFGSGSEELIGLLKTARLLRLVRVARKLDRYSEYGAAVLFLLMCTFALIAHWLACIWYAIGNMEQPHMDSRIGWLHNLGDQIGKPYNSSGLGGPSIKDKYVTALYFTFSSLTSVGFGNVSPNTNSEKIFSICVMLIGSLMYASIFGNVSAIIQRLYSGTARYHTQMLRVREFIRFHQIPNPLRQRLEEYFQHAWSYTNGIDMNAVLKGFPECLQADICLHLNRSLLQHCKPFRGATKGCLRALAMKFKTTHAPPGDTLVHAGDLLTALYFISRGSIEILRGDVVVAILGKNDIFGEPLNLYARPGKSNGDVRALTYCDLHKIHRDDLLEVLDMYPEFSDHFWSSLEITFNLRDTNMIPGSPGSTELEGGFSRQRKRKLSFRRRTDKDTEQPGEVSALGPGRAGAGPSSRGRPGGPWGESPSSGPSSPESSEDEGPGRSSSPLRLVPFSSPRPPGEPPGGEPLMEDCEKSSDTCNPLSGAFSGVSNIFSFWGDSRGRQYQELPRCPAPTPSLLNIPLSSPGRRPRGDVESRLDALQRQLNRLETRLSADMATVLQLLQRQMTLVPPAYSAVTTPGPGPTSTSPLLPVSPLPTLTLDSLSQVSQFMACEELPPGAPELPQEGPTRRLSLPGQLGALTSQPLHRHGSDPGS

The assay addresses human ether-à-go-go-related gene (hERG) potassium channel (human, UniProt Q12809). Description: primary screen, population patch clamp on CHO cells stably expressing hERG.
For the molecule `C#Cc1ccc([C@@H]2C=C(C(=O)N3CCN(Cc4ccc5c(c4)OCO5)CC3)O[C@H](OCCCCO)C2)cc1`, the “hERG current change (%, negative = inhibition) at 10uM” value is given as -64.1%.
Regarding `Clc1cccc(OCCCN2CCCC2)c1Cl`, the “hERG current change (%, negative = inhibition) at 10uM” value is on record as -55.5%.
For `COc1ccccc1Nc1nc(N)nc(CN2CCC(Cc3ccccc3)CC2)n1`, the “hERG current change (%, negative = inhibition) at 10uM” value is -84.5%.
The value for `O=S(=O)(NCC1CCCO1)c1ccc2oc3ccc(S(=O)(=O)NCC4CCCO4)cc3c2c1` (stereo not shown) was -12.2%; that for `CCOC(=O)CSC1=C(C#N)C(c2ccccc2F)C(C(C)=O)=C(C)N1` (stereo not shown) was -20.3%; that for `Cn1c(C2=C(O)CN(c3ccccc3)C2=N)nc2ccccc21` was -13.2%.
The value for `Cc1cc(C(=O)COC(=O)CC2Sc3ccccc3NC2=O)c(C)n1-c1cccc(C(F)(F)F)c1` (stereo not shown) was 12.4%; that for `CCOC(=O)C1CCN(C(=O)COc2ccc(S(=O)(=O)N3CCCC3)cc2C)CC1` was -11.1%; that for `COc1cc(/C=C/C(=O)OCC(=O)NCCc2ccccc2)cc(OC)c1OC` was 34.9%.
In the case of `O=C(NCCCN1CCOCC1)C(=O)N/N=C/c1c(Cl)cccc1Cl`, the “hERG current change (%, negative = inhibition) at 10uM” value is recorded as -8.72%.
Next, `Cc1ccc(-c2nc(-c3cccnc3)sc2CC(=O)O)cc1`: 11%; `COc1cc(NC(=O)c2csc3c2CCCC3)ncn1`: 9.87%; `C/C(=N\N1CCN(C)CC1)c1ccc(Cl)c(Cl)c1.Cl`: -47.7%.
On to `CC1CCCN(c2ccc(C(=O)Nc3cccnc3)cc2[N+](=O)[O-])C1` (stereo not shown), for which the “hERG current change (%, negative = inhibition) at 10uM” value is listed as -24.4%.
Next, `CN(CCOc1ccccc1)CC(=O)Nc1ccc([N+](=O)[O-])cc1Cl`: -24.3%; `COc1ccc(C(=O)c2coc3ccc(O)c(CN4CCCCC4)c23)cc1`: -76.9%.
Turning to `O=C(c1cccc(F)c1)N1CCN(S(=O)(=O)c2ccc(C(F)(F)F)cc2)CC1`, the “hERG current change (%, negative = inhibition) at 10uM” value was -16.3%.
Regarding `CC(C)[C@H](NC(=O)c1ccccc1)C(=O)N1CCc2ccccc21`, the “hERG current change (%, negative = inhibition) at 10uM” value is on record as -14.2%.
With `COc1ccccc1/C=C/C=N/n1c(-c2ccc(Cl)cc2)n[nH]c1=S`, the “hERG current change (%, negative = inhibition) at 10uM” value came out at 16.8%.
Consider `CCS(=O)(=O)N1CCCC(c2nc(-c3cccc(OC)c3)no2)C1` (stereo not shown), for which the “hERG current change (%, negative = inhibition) at 10uM” value was -24.6%.
Next, `Cc1ccc(S(=O)(=O)CCC(=O)O)cc1C`: -8.61%; `COCCOC(=O)c1[nH]c2c(c1C)C(=O)CC(c1cc(OC)ccc1OC)C2` (stereo not shown): 0.379%.
The value for `CCN1c2cccc3cccc(c23)S1(=O)=O` was -24.3%.
As for `CN(C)S(=O)(=O)c1cccc(NC(=O)CCc2nc3cc(S(=O)(=O)N4CCOCC4)ccc3n2C)c1`, the “hERG current change (%, negative = inhibition) at 10uM” value is -5.4%.
The value for `C#CCOCCOCCOCCNc1nc(N2CCN(C(=O)[C@H]([C@@H](C)CC)n3cc(CCCC[NH3+])nn3)CC2)nc(N2CCN(C(=O)[C@H](C)n3cc(CCC[NH+]=C(N)N)nn3)CC2)n1.[Cl-]` was 15%; that for `CN(/C(=N/S(=O)(=O)c1cccs1)c1ccccc1)c1ccccc1` was -14.7%; that for `COC(=O)N/N=C/C1=CCC2CC1C2(C)C` (stereo not shown) was -16.1%.
Turning to `COc1ccc(-c2c(C#N)c(N)nc(Sc3ccc(Cl)cc3)c2C#N)cc1`, the “hERG current change (%, negative = inhibition) at 10uM” value amounted to 14.2%.
With `Cc1ccc(CNC(=O)c2cccc(OCc3c(C)noc3C)c2)cc1`, the “hERG current change (%, negative = inhibition) at 10uM” value came to 4%.
The value for `CCOC(=O)CCC(=O)NCc1ccc2[nH]c(C)cc2c1` was 4.85%; that for `CCOc1ccc(N/C(N)=N/c2nc(C)cc(C)n2)cc1` was -46.5%.
Next, `O=S(=O)(c1ccc(F)cc1)N1CCC2(CC1)OCCN2S(=O)(=O)c1cccs1`: -10.9%.
The value for `COC(=O)C1=C(c2ccc3ccccc3c2)C[C@@H]2CC[C@H]1N2C(=O)NCc1ccc(F)cc1` was 13.3%; that for `CC[C@H](C)[C@H](NC(=O)OCc1ccccc1)C(=O)Nc1ccc(NC(C)=O)cc1` was 20.4%.
In the case of `O=C(O)c1ccccc1N/N=C/c1cc(Br)cc(Br)c1O`, the “hERG current change (%, negative = inhibition) at 10uM” value amounted to 11.6%.
The value for `O=C(c1cccc([N+](=O)[O-])c1)N1CCN(c2ccc(Cl)cc2)CC1` was -41.1%.
Turning to `O=C(COC(=O)CCC(=O)c1ccc(F)cc1)Nc1nnc(-c2ccccc2)o1`, the “hERG current change (%, negative = inhibition) at 10uM” value is -17.4%.
The value for `COC(=O)C(CC(=O)Nc1cc(C)ccc1C)Nc1ccccc1OC` (stereo not shown) was -4.65%.
As to `COc1cccc(NC(=O)CN(C)C(C)C(=O)Nc2ccc(S(=O)(=O)N3CCOCC3)cc2)c1` (stereo not shown), the “hERG current change (%, negative = inhibition) at 10uM” value is -15.1%.
The value for `COc1ccc(N2C(=O)NC(=O)/C(=C\c3ccccc3[N+](=O)[O-])C2=O)cc1` was 22.4%.
Turning to `Cc1ccc(C2(C)NC(=O)N(CC(=O)N3CCN(S(=O)(=O)c4cccs4)CC3)C2=O)cc1` (stereo not shown), the “hERG current change (%, negative = inhibition) at 10uM” value is recorded as -31.9%.
As to `CCCOc1ccc(C2/C(=C(/O)c3ccccc3)C(=O)C(=O)N2CCCN(C)C)cc1OC` (stereo not shown), the “hERG current change (%, negative = inhibition) at 10uM” value is on record as 5.35%.
Consider `CN(C)CCCNS(=O)(=O)c1ccc(N2CCC(c3ccc(Cl)cc3)=N2)cc1`, for which the “hERG current change (%, negative = inhibition) at 10uM” value stood at 0.0494%.
The value for `Cc1ccc2nc(N(CCCN(C)C)C(=O)c3sc4ccccc4c3Cl)sc2c1.Cl` was -29.9%; that for `Clc1cccc(Cl)c1/C=C/c1ccn[nH]1` was 20.2%; that for `Cc1cc(C)c2c3c(cn2n1)c(=O)n(C)c(=O)n3C` was 1.6%.
Turning to `Fc1ccc2[nH]c3c(Cl)ncnc3c2c1`, the “hERG current change (%, negative = inhibition) at 10uM” value came to 10.8%.
The value for `Cc1cccc(N=C2NC(=O)/C(=C\c3cccs3)S2)c1` was 12.7%; that for `O=[N+]([O-])c1ccc(Cc2ccccn2)cc1` was -15.7%.
Next, `Cc1cc(Cl)c(S(=O)(=O)N2CCCCCC2)cc1OCC(N)=O`: -20.8%; `Cc1nnc(SCCn2c(N3CCCC(C)C3)nc3c2c(=O)n(C)c(=O)n3C)s1` (stereo not shown): -5.21%; `CCN1CCN(C(=O)c2ccc3c(c2)N(Cc2ccc(F)cc2)C(=O)c2ccccc2S3=O)CC1` (stereo not shown): -9.09%.
The value for `CCN(CC)S(=O)(=O)c1cccc2cc(C(=O)O)c(O)cc12` was -2.34%.
For the molecule `Cc1cc2cc(C)c(NCCNC(=O)c3ccccc3F)nc2cc1C`, the “hERG current change (%, negative = inhibition) at 10uM” value was -31.2%.
For the molecule `CC1c2[nH]c3ccccc3c2C[C@H]2C(=O)N(CCCO)CC(=O)N12` (stereo partly shown), the “hERG current change (%, negative = inhibition) at 10uM” value was determined as 23%.
With `O=C(Nc1ccc(C(=O)O)cc1)Nc1cccc2ccccc12`, the “hERG current change (%, negative = inhibition) at 10uM” value stood at 19.5%.
The value for `OCCN1CN=C(Nc2nc3ccccc3s2)NC1` was -6.04%.
The value for `COc1ccccc1N1CCN(C(=O)Nc2cccc(C)c2)CC1` was -3.99%; that for `COc1ccc(-c2csc(NC(=O)Cc3cc(OC)c(OC)c(OC)c3)n2)cc1OC` was -1.22%.
For `CCOC(=O)C(=O)Nc1nnc(C2CCCCC2)s1`, the “hERG current change (%, negative = inhibition) at 10uM” value is -5.64%.
Consider `O=C(Nc1nc2ccc(Cl)cc2s1)c1cccc(N2C(=O)CCC2=O)c1`, for which the “hERG current change (%, negative = inhibition) at 10uM” value was 9.49%.
Next, `COc1cccc(C2c3[nH]c4ccccc4c3C[C@H]3C(=O)N(c4ccccc4C(=O)NCCCN4CCOCC4)C(=O)N23)c1` (stereo partly shown): -19.9%.
Next, `CN(C)S(=O)(=O)c1ccc2c(c1)nc(CCC(=O)Nc1ccc(N3CCOCC3)cc1)n2C`: 15.6%.
Consider `Cc1cc(C)c(C)c(S(=O)(=O)NC2CCCCC2)c1C`, for which the “hERG current change (%, negative = inhibition) at 10uM” value came to 15%.
Next, `COc1ccc(CNC(=O)C2Cc3cc(S(=O)(=O)N4CCCC4)ccc3N2C(C)=O)c(OC)c1` (stereo not shown): 13.1%; `CC(C)(C)C1CCC(OC(=O)CN2CCCCC2)CC1` (stereo not shown): 12.5%.
Next, `CC(C)c1nnc(SCC(=O)NCCC2=CCCCC2)n1N`: 2.43%.
The value for `Cc1ccc(S(=O)(=O)N2CCCC(c3nc4c(nnn4Cc4ccc5c(c4)OCCO5)c(=O)[nH]3)C2)cc1` (stereo not shown) was 5.51%.
Turning to `COc1ccc(C)cc1NC(=O)COC(=O)c1ccc2c(c1)OCCO2`, the “hERG current change (%, negative = inhibition) at 10uM” value came out at 5.45%.
For the molecule `CCOC(=O)C1=C(C)Nc2nnnn2C1c1ccccc1Cl` (stereo not shown), the “hERG current change (%, negative = inhibition) at 10uM” value is -7.31%.
The value for `CN(C)c1ccc(CNS(=O)(=O)c2ccc3c(c2)NC(=O)CS3)cc1` was -4.85%; that for `O=C1NCC(=O)N(Cc2ccccc2)/C1=C/c1ccccc1` was 7.4%; that for `Cc1nc2cc(C(F)(F)F)ccc2n1C1CCN(CC(=O)N2CCCC2)CC1` was -13.1%.
Consider `Cc1ccn2cc(CCNC(=O)COc3ccccc3)nc2c1`, for which the “hERG current change (%, negative = inhibition) at 10uM” value is given as -34.3%.
With `Cc1ccc(-c2ccc(/C=N/O)o2)cc1[N+](=O)[O-]`, the “hERG current change (%, negative = inhibition) at 10uM” value is on record as 8.19%.
As for `CCS(=O)(=O)Nc1cccc(C2=NN(C(=O)c3ccco3)C(c3ccco3)C2)c1` (stereo not shown), the “hERG current change (%, negative = inhibition) at 10uM” value was -4.98%.
`Cc1c(C)n(-c2ccccc2)c2ncnc(NCCN(C)C)c12`: the “hERG current change (%, negative = inhibition) at 10uM” value is on record as -4.04%.
The value for `O=C(NNc1c(Cl)cccc1Cl)c1cccs1` was -7.95%; that for `O=C(C1CC1)N1CCc2cc(Br)cc(S(=O)(=O)N3CCOCC3)c21` was -1.21%; that for `CC(=O)Nc1ccc(S(=O)(=O)NCCC(=O)OCc2nnc(-c3ccccc3)o2)cc1` was -16.5%.
Next, `Cc1ccc(N=Nc2c(C)[nH]n(-c3ccccc3)c2=O)cc1`: -8.57%; `O=C(NCC1COc2ccccc2O1)c1ccco1` (stereo not shown): -5.32%.
In the case of `COC(=O)C(NNc1ccccc1)(NC(=O)c1cccc(F)c1)C(F)(F)F` (stereo not shown), the “hERG current change (%, negative = inhibition) at 10uM” value is listed as 13%.
As for `CC(=O)NC(=S)Nc1ccccc1N1CCCCC1`, the “hERG current change (%, negative = inhibition) at 10uM” value was -8.02%.
On to `Cc1ccc(-n2cc(CN(C)Cc3nccn3C)c(-c3cccc(C)c3)n2)cc1`, for which the “hERG current change (%, negative = inhibition) at 10uM” value is -16.1%.
